Here are results for 38 compounds from the supplement of paper PMC9588766.

Structures can show the parent of a compound that is named as a salt. Over roughly 1,900 compounds, “cell viability of compound + 1 nM pemigatinib relative to pemigatinib-only (DMSO) wells” has its median near 0.95; the lowest 2% begin near 0.22. This is one part of the list.

This experiment has as its system PDC-DUC18828. The experiment in a line: cell viability of compound + 1 nM pemigatinib relative to pemigatinib-only (DMSO) wells (fraction); PDC-DUC18828 is a patient-derived cholangiocarcinoma cell line; higher = less growth inhibition. The note with it: first compound 1 µM; pemigatinib concentration 1 nM; 72 h. Here is the method:
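Selleck Bioactive library screen in the patient-derived FGFR2 fusion-positive ICC cell line PDC-DUC18828 (500 cells/well). Each compound was tested at 1 uM with 1 nM pemigatinib, in triplicate, for 72 h. Viability was read by CellTiter-Glo and normalised to plate DMSO controls. Value is the paper's averaged normalised viability.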
On to `COc1ccc(CNC(=O)Nc2ncc([N+](=O)[O-])s2)cc1` + CCN1C(=O)N(c2c(F)c(OC)cc(OC)c2F)Cc2cnc3[nH]c(CN4CCOCC4)cc3c21 [pemigatinib], for which the cell viability came out at 0.934.
Next, `Cn1c2ccccc2c2c3c(c4c5ccccc5n(CCC#N)c4c21)CNC3=O` + CCN1C(=O)N(c2c(F)c(OC)cc(OC)c2F)Cc2cnc3[nH]c(CN4CCOCC4)cc3c21 [pemigatinib]: 0.902; `O=C(NS(=O)(=O)c1ccc(Br)s1)c1ccc(Cl)cc1Cl` [Tasisulam] + CCN1C(=O)N(c2c(F)c(OC)cc(OC)c2F)Cc2cnc3[nH]c(CN4CCOCC4)cc3c21 [pemigatinib]: 1.01; `C/C(=N\NC(=O)c1cccc(S(=O)(=O)N2CCOCC2)c1)c1cc(Cl)ccc1O` + CCN1C(=O)N(c2c(F)c(OC)cc(OC)c2F)Cc2cnc3[nH]c(CN4CCOCC4)cc3c21 [pemigatinib]: 0.238.
To `Cn1ccnc1S` [Methimazole] + CCN1C(=O)N(c2c(F)c(OC)cc(OC)c2F)Cc2cnc3[nH]c(CN4CCOCC4)cc3c21 [pemigatinib] belongs 0.996.
Next, `Nc1c(Br)cc(Br)cc1CN[C@H]1CC[C@H](O)CC1` [Ambroxol HCl] + CCN1C(=O)N(c2c(F)c(OC)cc(OC)c2F)Cc2cnc3[nH]c(CN4CCOCC4)cc3c21 [pemigatinib]: 0.882; `CS(=O)(=O)CCNCc1ccc(-c2ccc3ncnc(Nc4ccc(OCc5cccc(F)c5)c(Cl)c4)c3c2)o1` + CCN1C(=O)N(c2c(F)c(OC)cc(OC)c2F)Cc2cnc3[nH]c(CN4CCOCC4)cc3c21 [pemigatinib]: 0.903.
`C=CC(=O)Nc1cccc(Nc2nc(Nc3ccc(N4CCN(C(C)=O)CC4)cc3OC)ncc2C(F)(F)F)c1` + CCN1C(=O)N(c2c(F)c(OC)cc(OC)c2F)Cc2cnc3[nH]c(CN4CCOCC4)cc3c21 [pemigatinib]: the cell viability was 0.871.
To `CC(C)(Sc1cc(C(C)(C)C)c(O)c(C(C)(C)C)c1)Sc1cc(C(C)(C)C)c(O)c(C(C)(C)C)c1` [Probucol] + CCN1C(=O)N(c2c(F)c(OC)cc(OC)c2F)Cc2cnc3[nH]c(CN4CCOCC4)cc3c21 [pemigatinib] belongs 1.04.
Next, `C/C=C1\NC(=O)[C@H]2CSSCC/C=C/[C@H](CC(=O)N[C@H](C(C)C)C(=O)N2)OC(=O)[C@H](C(C)C)NC1=O` [Romidepsin (FK228, Depsipeptide)] + CCN1C(=O)N(c2c(F)c(OC)cc(OC)c2F)Cc2cnc3[nH]c(CN4CCOCC4)cc3c21 [pemigatinib]: 0.035; `O=C(O)CC[C@H]1CC[C@@](c2cc(F)ccc2F)(S(=O)(=O)c2ccc(Cl)cc2)CC1` + CCN1C(=O)N(c2c(F)c(OC)cc(OC)c2F)Cc2cnc3[nH]c(CN4CCOCC4)cc3c21 [pemigatinib]: 1.01; `COc1ccccc1N1CCN(CC(O)COc2cccc3ccccc23)CC1` (stereo not drawn) [Naftopidil] + CCN1C(=O)N(c2c(F)c(OC)cc(OC)c2F)Cc2cnc3[nH]c(CN4CCOCC4)cc3c21 [pemigatinib]: 0.997.
`COc1ccccc1N1CCN(CC(O)COc2cccc3ccccc23)CC1` (stereo not drawn) [Naftopidil DiHCl] + CCN1C(=O)N(c2c(F)c(OC)cc(OC)c2F)Cc2cnc3[nH]c(CN4CCOCC4)cc3c21 [pemigatinib]: the cell viability stood at 0.957.
As for `CN1CCC(=C2c3ccccc3CC(=O)c3sccc32)CC1` [Ketotifen Fumarate] + CCN1C(=O)N(c2c(F)c(OC)cc(OC)c2F)Cc2cnc3[nH]c(CN4CCOCC4)cc3c21 [pemigatinib], the cell viability amounted to 0.907.
For the compound `Nc1nc(N)c2nc(-c3cccc(O)c3)cnc2n1` + CCN1C(=O)N(c2c(F)c(OC)cc(OC)c2F)Cc2cnc3[nH]c(CN4CCOCC4)cc3c21 [pemigatinib], the cell viability was determined as 0.843.
Turning to `COc1ccc(CCNCc2ccc(OCc3ccc(Cl)nc3)c(OC)c2)cc1OC` + CCN1C(=O)N(c2c(F)c(OC)cc(OC)c2F)Cc2cnc3[nH]c(CN4CCOCC4)cc3c21 [pemigatinib], the cell viability turned out to be 0.89.
For `CCOc1ccc(Cc2cc([C@@H]3O[C@H](SC)[C@@H](O)[C@H](O)[C@H]3O)ccc2Cl)cc1` [Sotagliflozin (LX4211)] + CCN1C(=O)N(c2c(F)c(OC)cc(OC)c2F)Cc2cnc3[nH]c(CN4CCOCC4)cc3c21 [pemigatinib], the cell viability was determined as 1.03.
Next, `CC(C)(C)C(=O)OCOP(=O)(COCCn1cnc2c(N)ncnc21)OCOC(=O)C(C)(C)C` [Adefovir Dipivoxil] + CCN1C(=O)N(c2c(F)c(OC)cc(OC)c2F)Cc2cnc3[nH]c(CN4CCOCC4)cc3c21 [pemigatinib]: 0.696.
To `N#CC(c1ccc(Cl)cc1)c1c(Cl)cc(-n2ncc(=O)[nH]c2=O)cc1Cl` (stereo not drawn) [Diclazuril] + CCN1C(=O)N(c2c(F)c(OC)cc(OC)c2F)Cc2cnc3[nH]c(CN4CCOCC4)cc3c21 [pemigatinib] belongs 1.1.
Next, `COc1cc(OC)c(C(=O)CCCN2CCCC2)c(OC)c1` [Buflomedil HCl] + CCN1C(=O)N(c2c(F)c(OC)cc(OC)c2F)Cc2cnc3[nH]c(CN4CCOCC4)cc3c21 [pemigatinib]: 0.967; `Cc1ccc(NC(=O)c2ccc(CN3CC[C@H](N(C)C)C3)c(C(F)(F)F)c2)cc1Nc1nccc(-c2cncnc2)n1` [Bafetinib (INNO-406)] + CCN1C(=O)N(c2c(F)c(OC)cc(OC)c2F)Cc2cnc3[nH]c(CN4CCOCC4)cc3c21 [pemigatinib]: 0.913.
With `CCCCCCCCCCC[C@@H](C[C@@H]1OC(=O)[C@H]1CCCCCC)OC(=O)[C@H](CC(C)C)NC=O` [Orlistat] + CCN1C(=O)N(c2c(F)c(OC)cc(OC)c2F)Cc2cnc3[nH]c(CN4CCOCC4)cc3c21 [pemigatinib], the cell viability turned out to be 1.05.
Next, `CC1(C)CCC(CN2CCN(c3ccc(C(=O)NS(=O)(=O)c4ccc(NCC5CCOCC5)c([N+](=O)[O-])c4)c(Oc4cnc5[nH]ccc5c4)c3)CC2)=C(c2ccc(Cl)cc2)C1` + CCN1C(=O)N(c2c(F)c(OC)cc(OC)c2F)Cc2cnc3[nH]c(CN4CCOCC4)cc3c21 [pemigatinib]: 0.953.
With `CS(=O)(=O)c1cccc(CNc2nc(Nc3ccc4c(c3)CCC(=O)N4)ncc2C(F)(F)F)c1` + CCN1C(=O)N(c2c(F)c(OC)cc(OC)c2F)Cc2cnc3[nH]c(CN4CCOCC4)cc3c21 [pemigatinib], the cell viability is 0.997.
To `CCC[C@H](Nc1nc(-c2ccc(NC(=O)NCC)c(OC)c2)ncc1C)c1cccnc1` [CYT997 (Lexibulin)] + CCN1C(=O)N(c2c(F)c(OC)cc(OC)c2F)Cc2cnc3[nH]c(CN4CCOCC4)cc3c21 [pemigatinib] belongs 0.268.
With `COc1cc2ncc(-c3ccccc3)nc2cc1OC` [Tyrphostin AG 1296] + CCN1C(=O)N(c2c(F)c(OC)cc(OC)c2F)Cc2cnc3[nH]c(CN4CCOCC4)cc3c21 [pemigatinib], the cell viability worked out at 1.04.
To `CC(=O)[C@@]1(O)CC[C@H]2[C@@H]3CCC4=CC(=O)CCC4=C3[C@@H](c3ccc(N(C)C)cc3)C[C@@]21C` [Ulipristal] + CCN1C(=O)N(c2c(F)c(OC)cc(OC)c2F)Cc2cnc3[nH]c(CN4CCOCC4)cc3c21 [pemigatinib] belongs 0.966; to `CC(C)(Oc1ccc(Cl)cc1)C(=O)O` [Clofibric Acid] + CCN1C(=O)N(c2c(F)c(OC)cc(OC)c2F)Cc2cnc3[nH]c(CN4CCOCC4)cc3c21 [pemigatinib], 0.993; to `COc1cc(Nc2ncc(F)c(Nc3ccc4c(n3)NC(=O)C(C)(C)O4)n2)cc(OC)c1OC` [R406 (free base)] + CCN1C(=O)N(c2c(F)c(OC)cc(OC)c2F)Cc2cnc3[nH]c(CN4CCOCC4)cc3c21 [pemigatinib], 0.964.
To `COc1cc(Nc2ncc(F)c(Nc3ccc4c(n3)NC(=O)C(C)(C)O4)n2)cc(OC)c1OC` + CCN1C(=O)N(c2c(F)c(OC)cc(OC)c2F)Cc2cnc3[nH]c(CN4CCOCC4)cc3c21 [pemigatinib] belongs 0.97.
Take `O=NO` [Sodium Nitrite] + CCN1C(=O)N(c2c(F)c(OC)cc(OC)c2F)Cc2cnc3[nH]c(CN4CCOCC4)cc3c21 [pemigatinib]: the cell viability was 0.96.
On to `O=C(O)CCC(=O)Nc1ccc(Br)cn1` [Bikinin] + CCN1C(=O)N(c2c(F)c(OC)cc(OC)c2F)Cc2cnc3[nH]c(CN4CCOCC4)cc3c21 [pemigatinib], for which the cell viability is 0.899.
To `COc1ccc(C(=O)Nc2sc3c(c2C(N)=O)CCCC3)cc1OC` + CCN1C(=O)N(c2c(F)c(OC)cc(OC)c2F)Cc2cnc3[nH]c(CN4CCOCC4)cc3c21 [pemigatinib] belongs 1.01; to `CO[C@H]1O[C@@H]2O[C@@]3(C)CC[C@H]4[C@H](C)CC[C@@H]([C@H]1C)[C@@]24OO3` [Artemether] + CCN1C(=O)N(c2c(F)c(OC)cc(OC)c2F)Cc2cnc3[nH]c(CN4CCOCC4)cc3c21 [pemigatinib], 0.916; to `O=c1c2ccccc2oc2ccccc12` [Xanthone] + CCN1C(=O)N(c2c(F)c(OC)cc(OC)c2F)Cc2cnc3[nH]c(CN4CCOCC4)cc3c21 [pemigatinib], 0.961.
Next, `CC(C)(C)C[C@@H]1N[C@@H](C(=O)N[C@H]2CC[C@H](O)CC2)[C@H](c2cccc(Cl)c2F)[C@]12C(=O)Nc1cc(Cl)ccc12` + CCN1C(=O)N(c2c(F)c(OC)cc(OC)c2F)Cc2cnc3[nH]c(CN4CCOCC4)cc3c21 [pemigatinib]: 0.925.
On to `NC12CC3CC(CC(C3)C1)C2` [Amantadine HCl] + CCN1C(=O)N(c2c(F)c(OC)cc(OC)c2F)Cc2cnc3[nH]c(CN4CCOCC4)cc3c21 [pemigatinib], for which the cell viability came out at 1.01.
To `Cn1ncc(Cl)c1-c1cc(C(=O)N[C@H](CN)Cc2cccc(F)c2)sc1Cl` + CCN1C(=O)N(c2c(F)c(OC)cc(OC)c2F)Cc2cnc3[nH]c(CN4CCOCC4)cc3c21 [pemigatinib] belongs 0.758.
